# Reference: the supplement of paper PMC8728848
# Some of the results follow.
# B1: TbCVNHOb (Tuber borchii) (protein)
# chain: MSFYASSEDVRTIEEGGRTWLVGRARRADGSWQDIKLDLDNIIGNRDGHLTWGEQNFTQSASDIRFNFEGGSNVPVLRAKLRNAAGGEQESDLNLGERLTNNNGDLVFN
# How the values were obtained:
# Experiment in all cases: glycan array binding signal (z-score within array); higher = stronger binding
# Conditions in all cases: glycan notation: IUPAC condensed, linker removed
# [1] = biological target: Neu5Ac(a2-3)Gal(b1-3)GlcNAc6S
# Method in brief: (§1)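 Negative Z-scores can be read as non-binding. The Z-score is calculated within each array and then averaged across arrays of one protein sequence at different concentrations or buffers and across linkers. Arrays, 3228 in all, were curated from the Consortium for Functional Glycomics database and kept only where the protein sequence was available.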
# [2] = biological target: Neu5Ac(a2-3)Gal(b1-3)[Fuc(a1-4)]GlcNAc
# Method in brief: as §1
# [3] = biological target: Neu5Ac(a2-3)Gal(b1-3)[Fuc(a1-4)]GlcNAc(b1-3)Gal(b1-4)[Fuc(a1-3)]GlcNAc
# Method in brief: as §1
# [4] = biological target: Neu5Ac(a2-3)Gal(b1-3)[Neu5Ac(a2-3)Gal(b1-4)]GlcNAc
# Method in brief: as §1
# [5] = biological target: Neu5Ac(a2-3)Gal(b1-3)[Neu5Ac(a2-6)]GalNAc
# Method in brief: as §1
# Neu5Ac(a2-3)Gal(b1-4)Glc = biological target: Neu5Ac(a2-3)Gal(b1-4)Glc
# Method in brief: as §1
# [6] = biological target: Neu5Ac(a2-3)Gal(b1-4)GlcNAc
# Method in brief: as §1
# [7] = biological target: Neu5Ac(a2-3)Gal(b1-4)GlcNAc(b1-2)Man(a1-3)[GlcNAc(b1-2)Man(b1-4)GlcNAc(b1-2)Man(a1-6)]Man(b1-4)GlcNAc(b1-4)GlcNAc
# Method in brief: as §1
# [8] = biological target: Neu5Ac(a2-3)Gal(b1-4)GlcNAc(b1-2)Man(a1-3)[Neu5Ac(a2-6)Gal(b1-4)GlcNAc(b1-2)Man(a1-6)]Man(b1-4)GlcNAc(b1-4)GlcNAc
# Method in brief: as §1
# [9] = biological target: Neu5Ac(a2-3)Gal(b1-4)GlcNAc(b1-3)Gal(b1-3)GlcNAc
# Method in brief: as §1
# [10] = biological target: Neu5Ac(a2-3)Gal(b1-4)GlcNAc(b1-3)Gal(b1-4)GlcNAc
# Method in brief: as §1
# [11] = biological target: Neu5Ac(a2-3)Gal(b1-4)GlcNAc(b1-3)Gal(b1-4)GlcNAc(b1-3)Gal(b1-4)GlcNAc
# Method in brief: as §1
# [12] = biological target: Neu5Ac(a2-3)Gal(b1-4)GlcNAc(b1-3)Gal(b1-4)[Fuc(a1-3)]GlcNAc
# Method in brief: as §1
# [13] = biological target: Neu5Ac(a2-3)Gal(b1-4)GlcNAc(b1-6)[Gal(b1-3)]GalNAc
# Method in brief: as §1
# [14] = biological target: Neu5Ac(a2-3)Gal(b1-4)GlcNAc(b1-6)[Neu5Ac(a2-3)Gal(b1-3)]GalNAc
# Method in brief: as §1
# [15] = biological target: Neu5Ac(a2-3)Gal(b1-4)GlcNAc6S
# Method in brief: as §1
# [16] = biological target: Neu5Ac(a2-3)Gal(b1-4)[Fuc(a1-3)]GlcNAc
# Method in brief: as §1
# [17] = biological target: Neu5Ac(a2-3)Gal(b1-4)[Fuc(a1-3)]GlcNAc(b1-3)Gal
# Method in brief: as §1
# [18] = biological target: Neu5Ac(a2-3)Gal(b1-4)[Fuc(a1-3)]GlcNAc(b1-3)Gal(b1-4)GlcNAc
# Method in brief: as §1
# [19] = biological target: Neu5Ac(a2-3)Gal(b1-4)[Fuc(a1-3)]GlcNAc(b1-3)Gal(b1-4)[Fuc(a1-3)]GlcNAc(b1-3)Gal(b1-4)[Fuc(a1-3)]GlcNAc
# Method in brief: as §1
# [20] = biological target: Neu5Ac(a2-3)Gal(b1-4)[Fuc(a1-3)]GlcNAc(b1-6)[Gal(b1-3)]GalNAc
# Method in brief: as §1
# [21] = biological target: Neu5Ac(a2-3)Gal(b1-4)[Fuc(a1-3)]GlcNAc6S
# Method in brief: as §1
# [22] = biological target: Neu5Ac(a2-3)Gal6S(b1-4)GlcNAc
# Method in brief: as §1
# [23] = biological target: Neu5Ac(a2-3)Gal6S(b1-4)[Fuc(a1-3)]GlcNAc
# Method in brief: as §1
# Neu5Ac(a2-3)GalNAc = biological target: Neu5Ac(a2-3)GalNAc
# Method in brief: as §1
# [24] = biological target: Neu5Ac(a2-3)GalNAc(b1-4)GlcNAc
# Method in brief: as §1
# [25] = biological target: Neu5Ac(a2-3)[GalNAc(b1-4)]Gal(b1-4)Glc
# Method in brief: as §1
# [26] = biological target: Neu5Ac(a2-3)[GalNAc(b1-4)]Gal(b1-4)GlcNAc
# Method in brief: as §1
# [27] = biological target: Neu5Ac(a2-3)[Neu5Ac(a2-6)]GalNAc
# Method in brief: as §1
# Neu5Ac(a2-6)Gal = biological target: Neu5Ac(a2-6)Gal
# Method in brief: as §1
# Neu5Ac(a2-6)Gal(b1-4)Glc = biological target: Neu5Ac(a2-6)Gal(b1-4)Glc
# Method in brief: as §1
# [28] = biological target: Neu5Ac(a2-6)Gal(b1-4)GlcNAc
# Method in brief: as §1
# [29] = biological target: Neu5Ac(a2-6)Gal(b1-4)GlcNAc(b1-2)Man(a1-3)[Gal(b1-4)GlcNAc(b1-2)Man(a1-6)]Man(b1-4)GlcNAc(b1-4)GlcNAc
# Method in brief: as §1
# [30] = biological target: Neu5Ac(a2-6)Gal(b1-4)GlcNAc(b1-2)Man(a1-3)[GlcNAc(b1-2)Man(a1-6)]Man(b1-4)GlcNAc(b1-4)GlcNAc
# Method in brief: as §1
# [31] = biological target: Neu5Ac(a2-6)Gal(b1-4)GlcNAc(b1-2)Man(a1-3)[GlcNAc(b1-2)Man(b1-4)GlcNAc(b1-2)Man(a1-6)]Man(b1-4)GlcNAc(b1-4)GlcNAc
# Method in brief: as §1
# [32] = biological target: Neu5Ac(a2-6)Gal(b1-4)GlcNAc(b1-2)Man(a1-3)[Neu5Ac(a2-6)Gal(b1-4)GlcNAc(b1-2)Man(a1-6)]Man(b1-4)GlcNAc(b1-4)GlcNAc
# Method in brief: as §1
# [33] = biological target: Neu5Ac(a2-6)Gal(b1-4)GlcNAc(b1-2)Man(a1-6)[Gal(b1-4)GlcNAc(b1-2)Man(a1-3)]Man(b1-4)GlcNAc(b1-4)GlcNAc
# Method in brief: as §1
# [34] = biological target: Neu5Ac(a2-6)Gal(b1-4)GlcNAc(b1-2)Man(a1-6)[GlcNAc(b1-2)Man(a1-3)]Man(b1-4)GlcNAc(b1-4)GlcNAc
# Method in brief: as §1
# [35] = biological target: Neu5Ac(a2-6)Gal(b1-4)GlcNAc(b1-3)Gal(b1-4)GlcNAc
# Method in brief: as §1
# [36] = biological target: Neu5Ac(a2-6)Gal(b1-4)GlcNAc(b1-3)Gal(b1-4)[Fuc(a1-3)]GlcNAc(b1-3)Gal(b1-4)[Fuc(a1-3)]GlcNAc
# Method in brief: as §1
# [37] = biological target: Neu5Ac(a2-6)Gal(b1-4)GlcNAc6S
# Method in brief: as §1
# Neu5Ac(a2-6)GalNAc = biological target: Neu5Ac(a2-6)GalNAc
# Method in brief: as §1
# [38] = biological target: Neu5Ac(a2-6)GalNAc(b1-4)GlcNAc
# Method in brief: as §1
# Neu5Ac(a2-8)Neu5Ac = biological target: Neu5Ac(a2-8)Neu5Ac
# Method in brief: as §1
# [39] = biological target: Neu5Ac(a2-8)Neu5Ac(a2-3)Gal(b1-4)Glc
# Method in brief: as §1
# [40] = biological target: Neu5Ac(a2-8)Neu5Ac(a2-3)[GalNAc(b1-4)]Gal(b1-4)Glc
# Method in brief: as §1
# [41] = biological target: Neu5Ac(a2-8)Neu5Ac(a2-8)Neu5Ac
# Method in brief: as §1
# [42] = biological target: Neu5Ac(a2-8)Neu5Ac(a2-8)Neu5Ac(a2-3)Gal(b1-4)Glc
# Method in brief: as §1
# [43] = biological target: Neu5Ac(a2-8)Neu5Ac(a2-8)Neu5Ac(a2-3)[GalNAc(b1-4)]Gal(b1-4)Glc
# Method in brief: as §1
# [44] = biological target: Neu5Ac(a2-8)Neu5Ac(a2-8)Neu5Ac(a2-8)Neu5Ac(a2-3)[GalNAc(b1-4)]Gal(b1-4)Glc
# Method in brief: as §1
# [45] = biological target: Neu5Ac(b2-6)Gal(b1-4)GlcNAc
# Method in brief: as §1
# Neu5Ac(b2-6)GalNAc = biological target: Neu5Ac(b2-6)GalNAc
# Method in brief: as §1
# [46] = biological target: Neu5Ac9Ac(a2-6)Gal(b1-4)GlcNAc
# Method in brief: as §1
# [47] = biological target: Neu5Gc(a2-3)Gal(b1-3)GlcNAc
# Method in brief: as §1
# [48] = biological target: Neu5Gc(a2-3)Gal(b1-3)[Fuc(a1-4)]GlcNAc
# Method in brief: as §1
# Neu5Gc(a2-3)Gal(b1-4)Glc = biological target: Neu5Gc(a2-3)Gal(b1-4)Glc
# Method in brief: as §1
# [49] = biological target: Neu5Gc(a2-3)Gal(b1-4)GlcNAc
# Method in brief: as §1
# [50] = biological target: Neu5Gc(a2-3)Gal(b1-4)[Fuc(a1-3)]GlcNAc
# Method in brief: as §1
# [51] = biological target: Neu5Gc(a2-6)Gal(b1-4)GlcNAc
# Method in brief: as §1
# Neu5Gc(a2-6)GalNAc = biological target: Neu5Gc(a2-6)GalNAc
# Method in brief: as §1
# [52] = biological target: Neu5Gc(b2-6)Gal(b1-4)GlcNAc
# Method in brief: as §1
binder,measurement,setting,value
B1,glycan array binding signal (z-score),[1],-0.117
same,glycan array binding signal (z-score),[2],-0.255
same,glycan array binding signal (z-score),[3],0.391
same,glycan array binding signal (z-score),[4],-0.292
same,glycan array binding signal (z-score),[5],-0.103
same,glycan array binding signal (z-score),Neu5Ac(a2-3)Gal(b1-4)Glc,-0.074
same,glycan array binding signal (z-score),[6],-0.286
same,glycan array binding signal (z-score),[7],-0.16
same,glycan array binding signal (z-score),[8],0.237
same,glycan array binding signal (z-score),[9],-0.07
same,glycan array binding signal (z-score),[10],-0.383
same,glycan array binding signal (z-score),[11],-0.237
same,glycan array binding signal (z-score),[12],-0.263
same,glycan array binding signal (z-score),[13],-0.328
same,glycan array binding signal (z-score),[14],-0.18
same,glycan array binding signal (z-score),[15],-0.266
same,glycan array binding signal (z-score),[16],-0.274
same,glycan array binding signal (z-score),[17],-0.215
same,glycan array binding signal (z-score),[18],0.292
same,glycan array binding signal (z-score),[19],-0.228
same,glycan array binding signal (z-score),[20],-0.124
same,glycan array binding signal (z-score),[21],-0.172
same,glycan array binding signal (z-score),[22],-0.274
same,glycan array binding signal (z-score),[23],-0.293
same,glycan array binding signal (z-score),Neu5Ac(a2-3)GalNAc,-0.303
same,glycan array binding signal (z-score),[24],-0.296
same,glycan array binding signal (z-score),[25],-0.379
same,glycan array binding signal (z-score),[26],-0.165
same,glycan array binding signal (z-score),[27],-0.328
same,glycan array binding signal (z-score),Neu5Ac(a2-6)Gal,-0.075
same,glycan array binding signal (z-score),Neu5Ac(a2-6)Gal(b1-4)Glc,-0.055
same,glycan array binding signal (z-score),[28],-0.27
same,glycan array binding signal (z-score),[29],-0.15
same,glycan array binding signal (z-score),[30],-0.169
same,glycan array binding signal (z-score),[31],-0.008
same,glycan array binding signal (z-score),[32],-0.103
same,glycan array binding signal (z-score),[33],-0.129
same,glycan array binding signal (z-score),[34],-0.131
same,glycan array binding signal (z-score),[35],-0.156
same,glycan array binding signal (z-score),[36],0.016
same,glycan array binding signal (z-score),[37],-0.275
same,glycan array binding signal (z-score),Neu5Ac(a2-6)GalNAc,-0.28
same,glycan array binding signal (z-score),[38],-0.347
same,glycan array binding signal (z-score),Neu5Ac(a2-8)Neu5Ac,-0.137
same,glycan array binding signal (z-score),[39],-0.392
same,glycan array binding signal (z-score),[40],-0.26
same,glycan array binding signal (z-score),[41],-0.347
same,glycan array binding signal (z-score),[42],-0.118
same,glycan array binding signal (z-score),[43],-0.317
same,glycan array binding signal (z-score),[44],-0.228
same,glycan array binding signal (z-score),[45],-0.31
same,glycan array binding signal (z-score),Neu5Ac(b2-6)GalNAc,-0.314
same,glycan array binding signal (z-score),[46],-0.117
same,glycan array binding signal (z-score),[47],-0.289
same,glycan array binding signal (z-score),[48],-0.36
same,glycan array binding signal (z-score),Neu5Gc(a2-3)Gal(b1-4)Glc,-0.12
same,glycan array binding signal (z-score),[49],-0.231
same,glycan array binding signal (z-score),[50],-0.197
same,glycan array binding signal (z-score),[51],-0.266
same,glycan array binding signal (z-score),Neu5Gc(a2-6)GalNAc,-0.275
same,glycan array binding signal (z-score),[52],-0.171
